The values below come from the supplement of paper PMC6609913.

This assay has as its system V-C8 (BRCA2-deficient hamster cells). Kind of assay: normalised cell viability (fraction of plate median); higher = more viable cells (less toxic). As to conditions: 5 µM. In a few lines: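 Hamster V-C8 cells lacking BRCA2 and V-C8 cells with BRCA2 restored were seeded in 96-well plates. Library drugs (10 mM DMSO stocks) were added 24 h later at 5 μM in 100 μl medium, next to DMSO control wells, for 3 days (screen 1) or 6 days (screen 2). Cell viability was read by resazurin assay, median-plate normalised (modified robust per cent of sample), and triplicate wells were averaged.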

Structures can show the parent of a compound that is named as a salt. ± gives the standard deviation of the averaged measurements. Over roughly 1,300 compounds, “normalised cell viability” has its median near 1; the lowest 2% begin near 0.14. Some of the results follow.

As for `CC(Cc1cccc(C(F)(F)F)c1)NCCOC(=O)c1ccccc1` (stereo unspecified) [Benfluorex hydrochloride], the normalised cell viability was determined as 1.14 ± 0.015 (treatment time: 3 days) and 1.202 ± 0.006 (treatment time: 6 days).
In turn, `CC(=O)S[C@@H]1CC2=CC(=O)CC[C@]2(C)[C@H]2CC[C@@]3(C)[C@@H](CC[C@@]34CCC(=O)O4)[C@H]12` [Spironolactone] displayed a normalised cell viability (treatment time: 3 days) of 1.06 ± 0.083 and a normalised cell viability (treatment time: 6 days) of 1.04 ± 0.039.
The matching figures for `CCCc1cc(C(N)=S)ccn1` [Prothionamide]: 0.967 ± 0.035 and 1.04 ± 0.061.
For the compound `NNCCc1ccccc1` [Phenelzine sulfate], the normalised cell viability stood at 1.05 ± 0.057 (treatment time: 3 days) and 1.05 ± 0.076 (treatment time: 6 days).
As to `C[C@H]1O[C@H](O[C@H]2[C@H](O)[C@@H](O)[C@@H](O[C@H]3[C@H](O)[C@@H](O)C(O)O[C@@H]3CO)O[C@@H]2CO)[C@H](O)[C@@H](O)[C@@H]1N[C@H]1C=C(CO)[C@@H](O)[C@H](O)[C@H]1O` (stereo partly specified) [Acarbose], the normalised cell viability stood at 0.911 ± 0.036 (treatment time: 3 days) and 1.11 ± 0.066 (treatment time: 6 days).
Turning to `CC(C)(C)NC[C@@H](O)COc1cccc2c1CCCC2=O` [(+) -Levobunolol hydrochloride], the normalised cell viability came out at 0.9988 ± 0.0084 (treatment time: 3 days) and 0.922 ± 0.077 (treatment time: 6 days).
`CO[C@H]1/C=C/O[C@@]2(C)Oc3c(C)c(O)c4c(O)c(c(/C=N/N5CCN(C6CCCC6)CC5)c(O)c4c3C2=O)NC(=O)/C(C)=C\C=C\[C@H](C)[C@H](O)[C@@H](C)[C@@H](O)[C@@H](C)[C@H](OC(C)=O)[C@@H]1C` [Rifapentine]: the normalised cell viability by setting is: (treatment time: 3 days) 0.949 ± 0.11; (treatment time: 6 days) 1.03 ± 0.025.
`N=C(N)NC(=N)NCCc1ccccc1` [Phenformin hydrochloride]: the normalised cell viability by setting is: (treatment time: 3 days) 0.955 ± 0.035; (treatment time: 6 days) 0.96 ± 0.052.
Compound `CN1CCC(=C2c3ccccc3C=Cc3ccccc32)CC1` [Cyproheptadine hydrochloride] returned a normalised cell viability (treatment time: 3 days) of 0.868 ± 0.057 and a normalised cell viability (treatment time: 6 days) of 0.817 ± 0.02.
As for `CC[N+](C)(C)c1cccc(O)c1` [Edrophonium chloride], the normalised cell viability by setting is: (treatment time: 3 days) 0.951 ± 0.062; (treatment time: 6 days) 1.02 ± 0.028.
As to `NCCc1c[nH]cn1` [Histamine dihydrochloride], the normalised cell viability runs as follows: (treatment time: 3 days) 1.06 ± 0.084; (treatment time: 6 days) 1.08 ± 0.14.
In the case of `OC(Cn1cncn1)(Cn1cncn1)c1ccc(F)cc1F` [Fluconazole], the normalised cell viability is 1.09 ± 0.061 (treatment time: 3 days) and 1.03 ± 0.054 (treatment time: 6 days).
Compound `CCCOc1cc(N)ccc1C(=O)OCCN(CC)CC` [Propoxycaine hydrochloride] gave a normalised cell viability (treatment time: 3 days) of 1.1 ± 0.017 and a normalised cell viability (treatment time: 6 days) of 1.04 ± 0.015.
As for `Cc1cn[nH]c1` [Fomepizole], the normalised cell viability runs as follows: (treatment time: 3 days) 1.15 ± 0.042; (treatment time: 6 days) 1.02 ± 0.036.
Turning to `CC(=O)OCC(=O)[C@@]1(O)CC[C@H]2[C@@H]3CCC4=CC(=O)CC[C@]4(C)[C@@]3(F)[C@@H](O)C[C@@]21C` [Fludrocortisone acetate], the normalised cell viability reads like this: (treatment time: 3 days) 0.957 ± 0.08; (treatment time: 6 days) 1.11 ± 0.041.
As to `CCCCN(CCCC)CCCOC(=O)c1ccc(N)cc1` [Butacaine], the normalised cell viability by setting is: (treatment time: 3 days) 1.01 ± 0.041; (treatment time: 6 days) 1.03 ± 0.039.
Regarding `Cc1ccc(C(=O)c2ccc(CC(=O)O)n2C)cc1` [Tolmetin sodium salt dihydrate], the normalised cell viability is 1.02 ± 0.035 (treatment time: 3 days) and 0.978 ± 0.025 (treatment time: 6 days).
On to `COC(=O)Nc1nc2cc(C(=O)c3cccs3)ccc2[nH]1` [Nocodazole], for which the normalised cell viability came to 0.147 ± 0.0062 (treatment time: 3 days) and 0.128 ± 0.004 (treatment time: 6 days).
`CC[N+](C)(CC)CCOC(=O)C1c2ccccc2Oc2ccccc21` [Methantheline bromide]: the normalised cell viability amounted to 0.957 ± 0.12 (treatment time: 3 days) and 0.897 ± 0.059 (treatment time: 6 days).
The matching figures for `CC(=O)OCC(=O)[C@@]1(O)CC[C@H]2[C@@H]3CCC4=CC(=O)CC[C@]4(C)[C@H]3[C@@H](O)C[C@@]21C` [Cortisol acetate]: 1.06 ± 0.14 and 1.16 ± 0.045.
In the case of `Cc1ncc(C[n+]2csc(CCO)c2C)c(N)n1` [Thiamine hydrochloride], the normalised cell viability is, setting by setting: (treatment time: 3 days) 1.05 ± 0.029; (treatment time: 6 days) 1.05 ± 0.016.
For the compound `CC(C)c1c(C(=O)Nc2ccccc2)c(-c2ccccc2)c(-c2ccc(F)cc2)n1CC[C@@H](O)C[C@@H](O)CC(=O)O` [Atorvastatin], the normalised cell viability by setting is: (treatment time: 3 days) 0.633 ± 0.051; (treatment time: 6 days) 0.734 ± 0.032.
The matching figures for `CCN[C@H]1CN(CCCOC)S(=O)(=O)c2sc(S(N)(=O)=O)cc21` [Brinzolamide]: 1.14 ± 0.04 and 1.11 ± 0.032.
With `NS(=O)(=O)c1cc(C2(O)NC(=O)c3ccccc32)ccc1Cl` (stereo unspecified) [Chlorthalidone], the normalised cell viability came to 1.05 ± 0.036 (treatment time: 3 days) and 1.01 ± 0.085 (treatment time: 6 days).
In turn, `C=CC(N)CCC(=O)O` (stereo unspecified) [Vigabatrin] registered a normalised cell viability (treatment time: 3 days) of 1.04 ± 0.061 and a normalised cell viability (treatment time: 6 days) of 1.03 ± 0.042.
The matching figures for `CCN(CC)CCOC(=O)C1(C2CCCCC2)CCCCC1` [Dicyclomine hydrochloride]: 0.977 ± 0.096 and 0.998 ± 0.04.
Take `CC(N/C(=N\C#N)Nc1ccncc1)C(C)(C)C` (stereo unspecified) [Pinacidil]: the normalised cell viability by setting is: (treatment time: 3 days) 0.916 ± 0.02; (treatment time: 6 days) 0.953 ± 0.043.
The matching figures for `CCCCC(O)c1ccccc1` (stereo unspecified) [Fenipentol]: 1.12 ± 0.097 and 1.03 ± 0.016.
For `CC(=O)Oc1ccccc1C(=O)Nc1ncc([N+](=O)[O-])s1` [Nitazoxanide], the normalised cell viability is, setting by setting: (treatment time: 3 days) 0.889 ± 0.033; (treatment time: 6 days) 0.95 ± 0.07.
Regarding `COc1cc(C(=O)OCCCN2CCCN(CCCOC(=O)c3cc(OC)c(OC)c(OC)c3)CC2)cc(OC)c1OC` [Dilazep dihydrochloride], the normalised cell viability by setting is: (treatment time: 3 days) 0.887 ± 0.081; (treatment time: 6 days) 0.903 ± 0.072.
The matching figures for `O=C1c2c(O)cccc2Cc2cccc(O)c21` [Anthralin]: 1.03 ± 0.019 and 1.003 ± 0.0083.
Regarding `O=C(O)c1cn(-c2ccc(F)cc2)c2cc(N3CCNCC3)c(F)cc2c1=O` [Sarafloxacin], the normalised cell viability (treatment time: 3 days) worked out at 1.01 ± 0.047 and the normalised cell viability (treatment time: 6 days) came out at 1.1 ± 0.32.
For `C[C@@H]1C[C@H]2[C@@H]3C[C@H](F)C4=CC(=O)C=C[C@]4(C)[C@@]3(F)[C@@H](O)C[C@]2(C)[C@@]1(O)C(=O)CO` [Flumethasone], the normalised cell viability runs as follows: (treatment time: 3 days) 1.06 ± 0.084; (treatment time: 6 days) 1.1 ± 0.038.
